The other results are listed elsewhere or left out.
Each sequence was assayed against T1, MBP-FoxP1dN (Mus musculus, UniProt P58462 326-579) (assay: PD-seq (MBP pull-down with sequencing); 20 mM Tris-HCl pH 7.5, 100 mM NaCl, 1.5 mM MgCl2, 0.4 uM protein, 0.1 uM dsDNA library, 30 min, room temperature, amylose pull-down; high values mean tight binding). Settings: protein: recombinant; tags: His6-MBP; chain copies: 2; dsDNA, one strand shown.
T1 sequence: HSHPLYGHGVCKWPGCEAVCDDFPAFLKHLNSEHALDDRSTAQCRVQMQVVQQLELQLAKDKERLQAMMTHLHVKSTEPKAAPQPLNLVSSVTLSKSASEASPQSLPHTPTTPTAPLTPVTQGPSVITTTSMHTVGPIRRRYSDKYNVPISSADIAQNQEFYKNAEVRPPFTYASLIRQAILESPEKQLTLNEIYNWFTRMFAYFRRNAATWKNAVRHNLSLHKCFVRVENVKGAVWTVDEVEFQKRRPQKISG
How it was run: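 A fragment of mouse FoxP3 or FoxP1 without its N-terminus, carrying a His6-MBP tag and produced in E. coli, was combined at 0.4 µM with a 0.1 µM degenerate double-stranded DNA library filled in with Klenow. The mixture sat for 30 min at room temperature in Tris pH 7.5 buffer containing NaCl and MgCl2. Protein–DNA complexes were captured on amylose resin, washed three times, and the DNA was freed with proteinase K, barcoded by PCR and sequenced on Illumina. Binding is expressed as reads-per-million enrichment of pull-down over input, with replicates pooled.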

Sequence	binding signal
GATGATTGTTCTCCCAGCTGATGAATTACCCATATCGAGTAAACAAATTTTCCTAATCTTTCTGTTCAAGCGCCATCTAC	1.07 RPM ratio (pull-down/input)
GATGATTGTTCTCCCAGCTGATGAATTAGCGCCATCGAGTAAACAAATTTTCCTAATCTTTCTGTTCAAGCGCCATCTAC	0.972 RPM ratio (pull-down/input)
GATGATTGTTCTCCCAGCTGATGAATTAAAACGTTCGAGTAAACAAATTTTCCTAATCTTTCTGTTCAAGCGCCATCTAC	1.01 RPM ratio (pull-down/input)
GATGATTGTTCTCCCAGCTGATGAATTGTACCAGTCGAGTAAACAAATTTTCCTAATCTTTCTGTTCAAGCGCCATCTAC	0.896 RPM ratio (pull-down/input)
GATGATTGTTCTCCCAGCTGATGAATTTTCTTATTCGAGTAAACAAATTTTCCTAATCTTTCTGTTCAAGCGCCATCTAC	0.953 RPM ratio (pull-down/input)
GATGATTGTTCTCCCAGCTGATGAATTAGCCGAGTCGAGTAAACAAATTTTCCTAATCTTTCTGTTCAAGCGCCATCTAC	0.838 RPM ratio (pull-down/input)
GATGATTGTTCTCCCAGCTGATGAATTCCGACCCTCGAGTAAACAAATTTTCCTAATCTTTCTGTTCAAGCGCCATCTAC	0.728 RPM ratio (pull-down/input)
GATGATTGTTCTCCCAGCTGATGAATTGCGCGTATCGAGTAAACAAATTTTCCTAATCTTTCTGTTCAAGCGCCATCTAC	1.14 RPM ratio (pull-down/input)
GATGATTGTTCTCCCAGCTGATGAATTCACCTGCTCGAGTAAACAAATTTTCCTAATCTTTCTGTTCAAGCGCCATCTAC	0.83 RPM ratio (pull-down/input)
GATGATTGTTCTCCCAGCTGATGAATTGTGCTGCTCGAGTAAACAAATTTTCCTAATCTTTCTGTTCAAGCGCCATCTAC	0.988 RPM ratio (pull-down/input)
GATGATTGTTCTCCCAGCTGATGAATTGATTCGATCGAGTAAACAAATTTTCCTAATCTTTCTGTTCAAGCGCCATCTAC	0.994 RPM ratio (pull-down/input)
GATGATTGTTCTCCCAGCTGATGAATTATCCCAATCGAGTAAACAAATTTTCCTAATCTTTCTGTTCAAGCGCCATCTAC	1.02 RPM ratio (pull-down/input)
GATGATTGTTCTCCCAGCTGATGAATTGCTTCTGTCGAGTAAACAAATTTTCCTAATCTTTCTGTTCAAGCGCCATCTAC	0.961 RPM ratio (pull-down/input)
GATGATTGTTCTCCCAGCTGATGAATTATGCCTCTCGAGTAAACAAATTTTCCTAATCTTTCTGTTCAAGCGCCATCTAC	0.997 RPM ratio (pull-down/input)
GATGATTGTTCTCCCAGCTGATGAATTCGGGGAATCGAGTAAACAAATTTTCCTAATCTTTCTGTTCAAGCGCCATCTAC	0.94 RPM ratio (pull-down/input)
GATGATTGTTCTCCCAGCTGATGAATTAAGTTGCTCGAGTAAACAAATTTTCCTAATCTTTCTGTTCAAGCGCCATCTAC	1.09 RPM ratio (pull-down/input)

Sequence	binding signal
GATGATTGTTCTCCCAGCTGATGAATTGTTACGGTCGAGTAAACAAATTTTCCTAATCTTTCTGTTCAAGCGCCATCTAC	1.15 RPM ratio (pull-down/input)
GATGATTGTTCTCCCAGCTGATGAATTTCCTAAATCGAGTAAACAAATTTTCCTAATCTTTCTGTTCAAGCGCCATCTAC	1.05 RPM ratio (pull-down/input)
GATGATTGTTCTCCCAGCTGATGAATTTCTTGGATCGAGTAAACAAATTTTCCTAATCTTTCTGTTCAAGCGCCATCTAC	0.875 RPM ratio (pull-down/input)
GATGATTGTTCTCCCAGCTGATGAATTAAGTACGTCGAGTAAACAAATTTTCCTAATCTTTCTGTTCAAGCGCCATCTAC	0.976 RPM ratio (pull-down/input)
GATGATTGTTCTCCCAGCTGATGAATTTTGATGCTCGAGTAAACAAATTTTCCTAATCTTTCTGTTCAAGCGCCATCTAC	1.28 RPM ratio (pull-down/input)
GATGATTGTTCTCCCAGCTGATGAATTGAGGCAATCGAGTAAACAAATTTTCCTAATCTTTCTGTTCAAGCGCCATCTAC	1.08 RPM ratio (pull-down/input)
GATGATTGTTCTCCCAGCTGATGAATTTATTAATTCGAGTAAACAAATTTTCCTAATCTTTCTGTTCAAGCGCCATCTAC	1.32 RPM ratio (pull-down/input)
GATGATTGTTCTCCCAGCTGATGAATTCCGAACTTCGAGTAAACAAATTTTCCTAATCTTTCTGTTCAAGCGCCATCTAC	0.811 RPM ratio (pull-down/input)
GATGATTGTTCTCCCAGCTGATGAATTTCAGTGATCGAGTAAACAAATTTTCCTAATCTTTCTGTTCAAGCGCCATCTAC	0.914 RPM ratio (pull-down/input)
GATGATTGTTCTCCCAGCTGATGAATTTGCTGCATCGAGTAAACAAATTTTCCTAATCTTTCTGTTCAAGCGCCATCTAC	1.2 RPM ratio (pull-down/input)
GATGATTGTTCTCCCAGCTGATGAATTTCAAAGTTCGAGTAAACAAATTTTCCTAATCTTTCTGTTCAAGCGCCATCTAC	0.792 RPM ratio (pull-down/input)
GATGATTGTTCTCCCAGCTGATGAATTATGTCTCTCGAGTAAACAAATTTTCCTAATCTTTCTGTTCAAGCGCCATCTAC	1 RPM ratio (pull-down/input)
GATGATTGTTCTCCCAGCTGATGAATTGGGGCACTCGAGTAAACAAATTTTCCTAATCTTTCTGTTCAAGCGCCATCTAC	0.856 RPM ratio (pull-down/input)
GATGATTGTTCTCCCAGCTGATGAATTTGTCCCCTCGAGTAAACAAATTTTCCTAATCTTTCTGTTCAAGCGCCATCTAC	0.96 RPM ratio (pull-down/input)
GATGATTGTTCTCCCAGCTGATGAATTATGAACATCGAGTAAACAAATTTTCCTAATCTTTCTGTTCAAGCGCCATCTAC	1.17 RPM ratio (pull-down/input)

— PMC12820563, “FoxP3 forms a head-to-head dimer in vivo and stabilizes its multimerization on adjacent microsatellites”
